Reference: article PMC5897033
Results are given in words; binding and its absence hold for the method and conditions named. Some entries that bind do so weakly or less than the wild type. Sequences can lack the tags named with a protein. Each block holds one binder with its values, some of them ahead of it.

Key:
Experiment in all cases: two-hybrid; Gal4 system (Clontech), pGBKT7 (BD) and pGADT7 (AD) fusions, yeast strains AH109 and Y187; growth on -LWH (weak) and -LWHA (strong)
[1] = biological target: T1, human DMC1, yeast two-hybrid fusion (human) (UniProt Q14565)
T1 sequence: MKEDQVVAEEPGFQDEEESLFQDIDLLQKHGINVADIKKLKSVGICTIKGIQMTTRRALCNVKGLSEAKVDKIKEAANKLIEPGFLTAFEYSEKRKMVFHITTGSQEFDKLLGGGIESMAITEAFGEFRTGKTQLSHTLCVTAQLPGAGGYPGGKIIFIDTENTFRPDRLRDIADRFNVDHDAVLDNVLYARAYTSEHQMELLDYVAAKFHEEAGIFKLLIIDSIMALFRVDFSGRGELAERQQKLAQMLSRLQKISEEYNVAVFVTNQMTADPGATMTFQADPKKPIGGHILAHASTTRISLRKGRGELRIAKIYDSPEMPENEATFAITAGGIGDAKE

[2] = biological target: T2, human FLIP (C1ORF112), yeast two-hybrid fusion (human) (UniProt Q9NSG2)
T2 sequence: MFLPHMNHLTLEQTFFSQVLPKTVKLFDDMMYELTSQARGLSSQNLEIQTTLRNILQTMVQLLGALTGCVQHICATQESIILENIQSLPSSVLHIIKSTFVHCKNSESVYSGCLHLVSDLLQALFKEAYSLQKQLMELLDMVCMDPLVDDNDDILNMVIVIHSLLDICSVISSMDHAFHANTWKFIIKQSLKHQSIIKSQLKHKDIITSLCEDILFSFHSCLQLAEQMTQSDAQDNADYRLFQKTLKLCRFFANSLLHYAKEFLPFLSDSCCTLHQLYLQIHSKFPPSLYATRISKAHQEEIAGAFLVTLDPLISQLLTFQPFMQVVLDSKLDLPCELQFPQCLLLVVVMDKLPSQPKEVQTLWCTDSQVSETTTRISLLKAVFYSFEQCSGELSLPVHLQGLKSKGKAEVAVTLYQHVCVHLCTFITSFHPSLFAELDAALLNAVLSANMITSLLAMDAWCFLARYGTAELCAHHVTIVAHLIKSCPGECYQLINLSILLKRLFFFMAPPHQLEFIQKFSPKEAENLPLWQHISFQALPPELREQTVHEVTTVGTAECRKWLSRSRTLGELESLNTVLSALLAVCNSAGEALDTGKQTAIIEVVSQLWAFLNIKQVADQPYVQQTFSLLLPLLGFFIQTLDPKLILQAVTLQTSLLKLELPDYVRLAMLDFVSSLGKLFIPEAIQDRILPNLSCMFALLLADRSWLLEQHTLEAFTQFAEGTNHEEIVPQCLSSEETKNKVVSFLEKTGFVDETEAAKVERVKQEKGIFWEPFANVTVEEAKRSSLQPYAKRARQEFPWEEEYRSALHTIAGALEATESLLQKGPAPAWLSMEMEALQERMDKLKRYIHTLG

[3] = biological target: T3, human FIGNL1, yeast two-hybrid fusion (human) (UniProt Q6PIW4)
T3 sequence: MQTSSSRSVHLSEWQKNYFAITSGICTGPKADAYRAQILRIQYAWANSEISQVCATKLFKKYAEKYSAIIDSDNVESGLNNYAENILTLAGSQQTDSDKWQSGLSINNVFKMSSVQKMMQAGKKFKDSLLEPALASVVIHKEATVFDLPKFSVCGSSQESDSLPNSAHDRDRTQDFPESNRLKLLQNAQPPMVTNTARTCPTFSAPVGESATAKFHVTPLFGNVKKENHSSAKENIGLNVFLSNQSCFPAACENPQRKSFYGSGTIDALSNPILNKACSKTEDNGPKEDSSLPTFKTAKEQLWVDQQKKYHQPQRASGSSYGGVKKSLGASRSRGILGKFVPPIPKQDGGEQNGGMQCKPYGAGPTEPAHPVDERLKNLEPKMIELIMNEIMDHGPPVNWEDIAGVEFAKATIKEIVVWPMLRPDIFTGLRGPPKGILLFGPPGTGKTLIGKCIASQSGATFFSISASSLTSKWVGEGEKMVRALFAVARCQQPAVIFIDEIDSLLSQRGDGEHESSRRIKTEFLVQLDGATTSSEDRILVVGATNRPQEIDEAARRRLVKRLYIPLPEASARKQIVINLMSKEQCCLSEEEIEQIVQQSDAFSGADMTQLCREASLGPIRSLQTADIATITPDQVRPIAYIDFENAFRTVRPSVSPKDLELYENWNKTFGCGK

[4] = biological target: T4, human RAD51, yeast two-hybrid fusion (human), Q06609; details: remark: other sources report otherwise
T4 chain: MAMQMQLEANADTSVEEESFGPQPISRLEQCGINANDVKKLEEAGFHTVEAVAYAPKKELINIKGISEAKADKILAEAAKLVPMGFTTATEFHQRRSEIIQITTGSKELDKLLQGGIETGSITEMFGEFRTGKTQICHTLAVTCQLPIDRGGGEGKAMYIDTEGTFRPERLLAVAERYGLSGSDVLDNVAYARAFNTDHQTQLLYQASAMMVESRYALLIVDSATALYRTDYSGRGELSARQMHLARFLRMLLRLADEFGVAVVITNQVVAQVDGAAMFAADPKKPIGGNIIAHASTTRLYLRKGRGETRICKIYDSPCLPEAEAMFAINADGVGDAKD

[5] = biological target: T5, Arabidopsis RAD51, yeast two-hybrid fusion (Arabidopsis thaliana) (UniProt P94102)
T5 sequence: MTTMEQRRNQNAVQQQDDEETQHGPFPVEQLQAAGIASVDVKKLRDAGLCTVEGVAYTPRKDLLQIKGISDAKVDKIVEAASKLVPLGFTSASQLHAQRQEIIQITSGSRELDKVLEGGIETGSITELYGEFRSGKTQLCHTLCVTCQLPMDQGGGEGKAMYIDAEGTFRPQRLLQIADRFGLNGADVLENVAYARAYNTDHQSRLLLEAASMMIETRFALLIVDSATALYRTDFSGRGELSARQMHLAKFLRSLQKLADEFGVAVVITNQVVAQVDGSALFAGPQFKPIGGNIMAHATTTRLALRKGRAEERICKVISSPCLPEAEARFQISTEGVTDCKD

[6] = biological target: T6, Arabidopsis DMC1, yeast two-hybrid fusion (Arabidopsis thaliana) (UniProt Q39009)
T6 sequence: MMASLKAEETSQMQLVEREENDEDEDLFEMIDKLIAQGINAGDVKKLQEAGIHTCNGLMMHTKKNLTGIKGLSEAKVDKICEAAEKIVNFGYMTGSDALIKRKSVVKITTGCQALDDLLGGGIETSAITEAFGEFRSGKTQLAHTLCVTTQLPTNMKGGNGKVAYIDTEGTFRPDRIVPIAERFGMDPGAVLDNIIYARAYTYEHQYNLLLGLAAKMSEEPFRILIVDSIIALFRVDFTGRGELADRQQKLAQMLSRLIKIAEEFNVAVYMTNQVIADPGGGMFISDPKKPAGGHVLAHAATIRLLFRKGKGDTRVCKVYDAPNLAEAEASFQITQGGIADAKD

- binding [1]: binds
B1: human FIGNL1, yeast two-hybrid fusion (protein, UniProt Q6PIW4 1-674)
chain: T3 sequence

- binding [2]: binds
B2: N-terminal region (1-290 amino acids) of hFIGNL1, yeast two-hybrid fusion (domain or fragment, UniProt Q6PIW4 1-290)
chain: MQTSSSRSVHLSEWQKNYFAITSGICTGPKADAYRAQILRIQYAWANSEISQVCATKLFKKYAEKYSAIIDSDNVESGLNNYAENILTLAGSQQTDSDKWQSGLSINNVFKMSSVQKMMQAGKKFKDSLLEPALASVVIHKEATVFDLPKFSVCGSSQESDSLPNSAHDRDRTQDFPESNRLKLLQNAQPPMVTNTARTCPTFSAPVGESATAKFHVTPLFGNVKKENHSSAKENIGLNVFLSNQSCFPAACENPQRKSFYGSGTIDALSNPILNKACSKTEDNGPKEDS

- binding [2]: binds
- binding [1]: binds
- binding [3]: binds
B3: human FLIP (C1ORF112), yeast two-hybrid fusion (protein, UniProt Q9NSG2 1-853)
chain: T2 sequence

- binding [4]: no binding
B4: human FLIP (C1ORF112), yeast two-hybrid fusion, Q9NSG2 1-853 (protein)
chain: T2 sequence

- binding [5]: binds
- binding [6]: binds
B5: Arabidopsis FIGL1, full length, yeast two-hybrid fusion (protein, UniProt F4JEX5 1-680)
chain: MCGSVVSDSEREFEFHFWGFGHLGKEEERIMAGKRSSPFSSPLLRPPPEFLNVKEEGETETPCWRKEVDENLKRLQSLLFGADKFLEKSDFSSAQILGLRLLGFLDSRSVTDADRDFIGPIRREVASKIDLALEGLVSDSDRKAFELANTAPGAIFGSKGGFDVEKIKQSKYFGFHVSQSNGKGVKEMEERHDTDKLIPKAPKSMMQAKLTSLYGNSIGKPDNQRKTSVNNQDRASDECVIVERSHGFGFGTKRPHAETSSLANDGEVKEDGAPNGFVSAKIKLEMDVRQKRGSTESPSSCLSPQSDKNALGRGYGSRSGGLRRGYRSNFVPPVKTNGNNVGNLTSRIGGKTDDALDDSTRTCLEMLCGPDGELPEKLRNLEPRLIEHVSNEIMDRDPNVRWDDIAGLEHAKKCVTEMVIWPLLRPDIFKGCRSPGKGLLLFGPPGTGKTMIGKAIAGEAKATFFYISASSLTSKWIGEGEKLVRALFGVASCRQPAVIFVDEIDSLLSQRKSDGEHESSRRLKTQFLIEMEGFDSGSEQILLIGATNRPQELDEAARRRLTKRLYIPLPSSEARAWIIQNLLKKDGLFTLSDDDMNIICNLTEGYSGSDMKNLVKDATMGPLREALKRGIDITNLTKDDMRLVTLQDFKDALQEVRPSVSQNELGIYENWNNQFGSLSL
